PMC4336329 (PLoS ONE, 2015)
Among all 310,000 compounds or so, about 2,200 (0.71%) showed an effect of 50% or more. The effect is printed as a negative number. The list shows a part of the results.

The compounds below were run against human ether-à-go-go-related gene (hERG) potassium channel (human, UniProt Q12809) (assay: primary screen, population patch clamp on CHO cells stably expressing hERG).
Sequence of human ether-à-go-go-related gene (hERG) potassium channel (Q12809 whole entry, looked up): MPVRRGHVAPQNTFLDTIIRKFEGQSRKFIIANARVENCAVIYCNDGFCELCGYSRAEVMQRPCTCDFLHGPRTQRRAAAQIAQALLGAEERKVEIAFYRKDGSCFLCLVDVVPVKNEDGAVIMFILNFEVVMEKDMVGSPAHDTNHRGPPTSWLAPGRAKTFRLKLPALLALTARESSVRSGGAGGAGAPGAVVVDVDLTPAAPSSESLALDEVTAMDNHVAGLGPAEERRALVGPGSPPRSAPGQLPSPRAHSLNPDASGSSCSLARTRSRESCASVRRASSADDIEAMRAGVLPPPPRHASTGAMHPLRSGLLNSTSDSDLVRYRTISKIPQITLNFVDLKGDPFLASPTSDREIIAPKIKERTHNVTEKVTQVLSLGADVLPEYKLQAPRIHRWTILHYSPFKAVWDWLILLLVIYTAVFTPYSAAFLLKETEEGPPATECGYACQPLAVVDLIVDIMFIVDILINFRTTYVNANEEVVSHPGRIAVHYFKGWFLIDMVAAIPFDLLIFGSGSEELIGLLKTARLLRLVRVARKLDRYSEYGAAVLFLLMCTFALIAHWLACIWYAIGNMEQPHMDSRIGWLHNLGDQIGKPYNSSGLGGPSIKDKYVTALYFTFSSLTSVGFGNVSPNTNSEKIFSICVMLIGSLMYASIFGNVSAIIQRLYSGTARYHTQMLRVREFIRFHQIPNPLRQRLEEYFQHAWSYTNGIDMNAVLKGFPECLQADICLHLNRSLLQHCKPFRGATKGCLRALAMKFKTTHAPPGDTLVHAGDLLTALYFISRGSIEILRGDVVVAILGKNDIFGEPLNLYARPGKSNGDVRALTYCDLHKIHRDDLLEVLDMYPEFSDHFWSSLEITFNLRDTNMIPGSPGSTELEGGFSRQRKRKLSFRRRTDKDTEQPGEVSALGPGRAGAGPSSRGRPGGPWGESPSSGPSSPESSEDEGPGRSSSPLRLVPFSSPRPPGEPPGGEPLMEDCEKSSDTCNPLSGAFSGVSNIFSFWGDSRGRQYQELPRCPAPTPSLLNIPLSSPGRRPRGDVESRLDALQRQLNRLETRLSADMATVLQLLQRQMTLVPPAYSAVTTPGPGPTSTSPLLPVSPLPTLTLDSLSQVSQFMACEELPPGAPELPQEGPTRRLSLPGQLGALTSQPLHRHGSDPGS

Structure (SMILES)	hERG current change (%, negative = inhibition) at 1uM
Cc1c(-c2cc[n+]([O-])cc2)oc2ccc(Br)cc2c1=O	-15.6%
COc1ccc(S(=O)(=O)NCc2ccc(C(=O)N3CCN(Cc4ccccc4)CC3)cc2)cc1	11%
COc1ccc(Cc2nnc(SCC(=O)Nc3ccccc3)[nH]c2=O)cc1	10.1%
Cc1nnc(SCC(=O)Nc2nsc(-c3ccc(C(C)(C)C)cc3)n2)s1	5.33%
CC(C)Oc1cccc(-c2cc(C(=O)NC(=S)N(C)c3ccccc3C(=O)O)c3ccccc3n2)c1	13.4%
Cc1ccn2c(CNCCn3cccn3)c(C(=O)N3CCCCCC3)nc2c1	8.37%
O=c1cc(CN2CCN(C/C=C/c3ccccc3)CC2)c2cc(O)ccc2o1	-86%
Cc1cccc(NC(=S)N(c2ccccc2)C(C)C)c1C	-1.76%
Cc1oc(-c2ccccc2F)nc1CS(=O)(=O)CC(=O)NCCCN1CC(C)CC(C)C1 (stereo not drawn)	8.7%
O=C(CCC1CCCN(C(=O)CCN2CCCCC2=O)C1)NCc1ccccc1F (stereo not drawn)	16.8%
O=C(CSc1ccc(-c2ccco2)nn1)Nc1ccc(F)cc1	-21.2%
COC(CNC(=O)c1cccc(-n2c(=S)[nH]c3cc(Cl)ccc3c2=O)c1)OC	13.5%
COCCCNC(=O)CN1C(=O)CSc2ncccc21	4.29%
O=C(Nc1ccncc1)c1ccc2c(c1)OCCO2	11.3%
Cn1cnc2cc(NC(=O)COc3ccccc3)ccc21	17.6%
CCN(CC)C(=O)Cn1cc(C(=O)C(=O)NCCCN2CCCCC2)c2ccccc21	12.5%
CCC(C(=O)NCCc1ccc(S(N)(=O)=O)cc1)c1ccccc1 (stereo not drawn)	12.6%
O=C(c1ccc2c(=O)n(Cc3ccccc3Cl)c(=S)[nH]c2c1)N1CCCC1	9.61%
Cc1ccc2c(c1)C1CN(C)CCC1N2C(=S)Nc1cccnc1 (stereo not drawn)	6.29%
Cc1ccc(C(=O)OCC(=O)Nc2ccccc2Cl)c(O)c1	10.1%
O=C(NC1CC2CCCC(C1)N2)c1ccccc1 (stereo not drawn)	12.8%
CCC1=C(OC(=O)N(CC)CC)N2C(=O)OC(=NCC3CC3)[C@]2(Cc2ccccc2)[C@H]2C1=CC[C@H]1C(=O)N(CC)C(=O)[C@H]12	5.18%

Structure (SMILES)	hERG current change (%, negative = inhibition) at 1uM
Cc1cccc2sc(N(CCN(C)C)C(=O)c3cc(Cl)sc3Cl)nc12.Cl	-5.54%
CCn1c2ccccc2c2cc(CNCCCN3CCOCC3)ccc21.Cl	10.5%
CC(=O)Nc1ccc(S(=O)(=O)Nc2nc3ccccc3nc2Nc2ccc3ccccc3c2)cc1	16.8%
Cc1ccc(C(C)C)c(OCC(=O)N/N=C/c2cccn2C)c1	9.67%
COc1ccc(CNC(=O)C(C)OC(=O)CN2C(=O)COc3ccccc32)cc1 (stereo not drawn)	6.02%
COC(=O)CCNC(=O)Cc1c(C)n(C(=O)c2ccc(Cl)cc2)c2ccc(OC)cc12	8.1%
O=C(NCCCN1CCCC(O)C1)c1cc(COc2ccc(F)cc2F)on1 (stereo not drawn)	7.25%
O=c1[nH]n(Cc2ccccc2)c(=O)c2ccccc12	11%
CCc1ccc(C2C3=C(CC(C)(C)CC3=O)OC3=C2C(=O)CC(C)(C)C3)cc1	12.6%
COC(=O)c1cccc(COC(=O)c2ccc(N(C)C)cc2)c1	-5.82%
O=C1/C(=C\c2ccccc2)CCc2c1[nH]c1ccccc21	6.85%
Cc1cc(C)n(C(=O)CNC(=O)Cc2ccccc2)n1	12.4%
O=C(/C=C/c1ccccc1)N/C(=C/c1ccccc1)C(=O)N1CCCCC1	2.01%
O=C(NCc1ccc(F)cc1)c1cc(S(=O)(=O)N2CCCCC2)c[nH]1	8.4%
CCOC(=O)/C(C#N)=C1/C=Nc2ccccc2N1	0.374%
O=[N+]([O-])c1ccc(N2CCCC2)c(F)c1Br	6.24%
COc1ccccc1CN1CCN(C(=O)c2cccc3ccccc23)CC1	10.4%
Cc1nn(-c2ccccc2)c(C)c1C(=O)OCC(=O)Nc1cccc(S(N)(=O)=O)c1	6.28%
CCn1c(=S)sc2c(=O)n(CC(=O)Nc3ccc(OC)cc3)c(C)nc21	7.32%
CNC(=O)CC1C(=O)N(C)C(=S)N1NC(=O)c1ccc(Cl)cc1 (stereo not drawn)	-1.28%
CCc1ccc2nc(N(CCCN(C)C)C(=O)c3ccc(S(=O)(=O)N4CCCC4)cc3)sc2c1.Cl	-25.3%
CCCN(CCC)S(=O)(=O)c1ccc2c(c1)CCCN2C(C)=O	-11.3%

Structure (SMILES)	hERG current change (%, negative = inhibition) at 1uM
NC(=O)COC(=O)c1sc2cc(F)ccc2c1Cl	7.49%
COc1ccc(CC(=O)NCc2nnc(SCC(=O)Nc3ccc(OC)cc3)n2C)cc1	9.18%
COc1ccc(-c2cc3c(=O)n(CC(=O)N4CCN(C)CC4)ncn3n2)cc1	-3.88%
O=C(Nc1ccc(Br)cc1)C1CC=CCC1C(=O)OCC1CCCO1 (stereo not drawn)	6.1%
O=C(CCN1C(=O)CSc2ccccc21)Nc1ccc(C(F)(F)F)cc1	5.62%
Cc1noc(NS(=O)(=O)c2ccc(NC(=O)c3nn(-c4ccccc4)ccc3=O)cc2)c1C	15.9%
O=C(NC1CCCc2ccccc21)C(Cc1ccccc1)NS(=O)(=O)c1cccs1 (stereo not drawn)	4.96%
Cc1ccc(-n2nnc3c(=O)n(Cc4ccccn4)cnc32)cc1C	14.5%
FC(F)(F)c1ccc(Sc2n[nH]c(C(F)(F)F)n2)nc1	9.59%
CN1C(=O)C(C)(C)c2cc(S(=O)(=O)N3CCC(C(=O)NCc4ccc(F)cc4)CC3)ccc21	2.73%
CC[N+]12CCC(CC1)C(=C(c1ccccc1)c1ccccc1)C2.[Br-]	-8.25%
Cc1ccc(S(=O)(=O)N(C)CCCC(=O)NC(C)(C)C)cc1	13.6%
Cn1cc(C(=O)N/N=C/c2c(O)ccc3ccccc23)ccc1=O	12.4%
O=C(O)c1ccc(N2CCc3ccccc32)c([N+](=O)[O-])c1	20.3%
N#Cc1ccccc1S(=O)c1ccccc1C(=O)Nc1ccccc1 (stereo not drawn)	9.25%
CCOC(=O)c1ccc(Oc2c(C)oc3c(CN4CCN(C)CC4)c(O)ccc3c2=O)cc1	5.89%
O=C(O)CSc1cc(C(=O)c2cc(F)ccc2O)cn2c(=O)c3c(-c4ccccc4)csc3nc12	1.97%
Cc1ccc(CSCC(=O)N2CCN(c3ccc(F)cc3)CC2)cc1	-3.05%
COc1ccc(NC(=O)CC2C(=O)N(c3ccc(Cl)cc3)C(=S)N2CCc2ccccn2)cc1 (stereo not drawn)	0.654%
Nc1nc(-c2ccco2)nn1S(=O)(=O)c1ccccc1	21.8%
Cc1cccc(OCC(=O)N2CCN(Cc3cccnc3)CC2)c1.O=C(O)C(=O)O	4.47%
CNCCCNC(=O)c1ccc(/C=N/O)nc1	15.1%

Structure (SMILES)	hERG current change (%, negative = inhibition) at 1uM
CSc1ccc(S(=O)(=O)Nc2ccc(S(=O)(=O)Nc3ccc(C)cc3)cc2)cc1	1.01%
O=C(CNc1n[nH]c(=O)[nH]c1=O)N/N=C/C=C/c1ccccc1	8.03%
COc1ccc(C2C(C#N)=C(N)OC3=C2C(=O)CC(C)(C)C3)cc1Cn1nc(C)c([N+](=O)[O-])c1C (stereo not drawn)	-13%
CSCCC(NC(=O)COc1ccccc1)C(=O)N1CCN(c2ccccc2Cl)CC1 (stereo not drawn)	-0.953%
CCOC(=O)C1=C(C)NC(SC(C)=O)=NC1c1ccc(OC(C)=O)c(OC)c1 (stereo not drawn)	2.83%
CCCn1c(C)cc(C(=O)COC(=O)c2c(C)nn(-c3ccccc3)c2C)c1C	5.71%
CCN(CC)CCN(C(=O)c1cc(Cl)sc1Cl)c1nc2cc3c(cc2s1)OCO3.Cl	0.653%
Cn1ncc2c(N3CCOCC3)ncnc21	12.3%
O=c1oc2ccccc2n1Cc1ccccc1	18%
C=CCC(C)(NCc1ccccc1)c1ccc(C)cc1.Cl (stereo not drawn)	11.7%
CSc1ccc(NC(=O)NCCCN2CCC(Cc3ccccc3)CC2)cc1	-76%
CCOC(=O)c1ccc(N2CN(C3CCCCC3)CNC2=S)cc1	18.6%
Cc1cc(C(=O)CN2C(=O)C3CC=CCC3C2=O)c(C)n1-c1ccccc1 (stereo not drawn)	-7.58%
Nc1nonc1-c1noc(N2CCOCC2)n1	12.9%
O=C(CNS(=O)(=O)c1ccc(Br)s1)N1CCC(N2CCCCC2)CC1	-5.7%
CCn1c(Cc2ccccc2)nnc1SCC(=O)OC(C)C	-1.31%
CCn1c(SCC(=O)NCCc2ccc(Cl)cc2)nnc1-c1cccs1	-36.6%
Clc1ccc(Oc2ccccc2)c2ncccc12	9.87%
COc1cc(C(=O)NNC(=O)c2cc(=O)[nH]c3ccccc23)cc(OC)c1OC	15.6%
C=CCOc1c(CNn2cn[nH]c2=S)cccc1OC	10.8%
O=C(CN(C(=O)CNC(=O)c1ccco1)c1ccc2c(c1)OCCO2)NC1CCCCC1	24.9%
